Drawing on PubChem BioAssay AID488969 (Vanderbilt High Throughput Screening Facility, 2010), this text covers z-score for 29 compounds.

Each structure is given as a SMILES string. In all, about 110,000 compounds were measured (“z-score”: median about -0.1, highest 2% from about 2 on). The list shows a part of the results. Activity calls are given as the source filed them.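 Rule for the calls: active = z-score in the third read window above 3 or below -3; inactive = the rest.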

This assay concerns the target Metabotropic glutamate receptor 8 (Rattus norvegicus) (UniProt P70579). Kind of assay: rat mGluR8 modulators via GIRK flux, primary screen, cell-based, thallium flux, HTS (AID 488969). The note with it: HEK293 rat mGluR8, GIRK (G protein-gated inwardly rectifying potassium channel) thallium flux, FluoZin2; at 10 µM; stronger effect = higher value; submaximal glutamate (EC20) added with thallium.
Sequence of UniProt P70579 (P70579 whole entry, looked up): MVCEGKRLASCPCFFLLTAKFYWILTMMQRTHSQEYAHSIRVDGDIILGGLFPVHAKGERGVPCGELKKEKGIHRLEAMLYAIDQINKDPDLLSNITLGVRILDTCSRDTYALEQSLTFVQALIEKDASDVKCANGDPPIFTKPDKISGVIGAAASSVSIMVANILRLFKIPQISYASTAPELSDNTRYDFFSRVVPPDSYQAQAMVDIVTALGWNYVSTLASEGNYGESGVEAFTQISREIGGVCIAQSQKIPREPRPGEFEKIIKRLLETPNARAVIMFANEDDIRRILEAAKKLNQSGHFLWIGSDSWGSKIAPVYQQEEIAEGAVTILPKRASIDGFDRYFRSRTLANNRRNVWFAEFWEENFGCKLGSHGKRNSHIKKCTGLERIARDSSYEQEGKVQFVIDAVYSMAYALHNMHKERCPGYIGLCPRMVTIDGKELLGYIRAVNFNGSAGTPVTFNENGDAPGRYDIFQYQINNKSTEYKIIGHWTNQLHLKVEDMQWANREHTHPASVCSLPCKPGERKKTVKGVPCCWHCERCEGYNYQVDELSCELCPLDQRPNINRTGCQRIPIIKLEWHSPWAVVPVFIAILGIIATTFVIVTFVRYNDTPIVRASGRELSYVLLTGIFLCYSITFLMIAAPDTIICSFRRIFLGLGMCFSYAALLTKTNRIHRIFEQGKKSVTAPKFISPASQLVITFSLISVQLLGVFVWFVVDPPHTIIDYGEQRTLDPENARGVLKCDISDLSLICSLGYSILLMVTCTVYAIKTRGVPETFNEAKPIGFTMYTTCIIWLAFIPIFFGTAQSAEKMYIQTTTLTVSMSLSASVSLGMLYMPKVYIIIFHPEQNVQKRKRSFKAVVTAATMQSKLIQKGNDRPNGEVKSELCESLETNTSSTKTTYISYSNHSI
In turn, `CC1=NNC(=O)C1CCC(=O)N/N=C/C=C/c1ccccc1` (centres undefined) returned a z-score of 0.079.

Consider `CCOc1ccc(OCc2ccc(C(=O)N3CCOCC3)cc2)cc1`, for which the z-score was -0.107.

Turning to `Cc1ccc(/C=C(/C#N)C(=O)NC(C)c2ccccc2)o1` (centres undefined), the z-score is -0.178.

The compound `C/C(=N\NC(=O)c1ccc(Br)cc1)c1ccccc1` gave a z-score of 1.2.

`CCC1(C(=O)c2ccc(Cl)cc2)C2c3ccccc3OC(=O)C21C(=O)Nc1ccccc1` (centres undefined) returned a z-score of 0.864.

Compound `O=C(CN1CCN(S(=O)(=O)c2ccc3ccccc3c2)CC1)NC(=O)NC1CCCCC1` yielded a z-score of -0.0688.

As for `CC(C)Cc1cc(C(=O)Nc2cc(C(F)(F)F)ccc2Cl)no1`, the z-score is -0.28.

`Cc1cc2oc(C(=O)Nc3cccnc3)c(C)c2cc1C` registered a z-score of -0.221.

Compound `Cc1ccc(NC(=S)NCCSc2ccc(Cl)cc2)c(C)c1` returned a z-score of 0.032.

As for `CCCC(O)(CCC)C(=O)NN(C(=O)CCl)c1cccc(C)c1`, the z-score is -1.84e-05.

The compound `CC(C)N1CCC2(CC1)N=C(c1ccc3c(c1)OCO3)CC(c1cc(Cl)ccc1O)N2` (centres undefined) returned a z-score of 1.97.

`COc1cc(/C=N/NC(=O)C(=O)NCc2cccnc2)ccc1O`: the z-score was -0.00674.

`COc1ccc(C(=O)Nc2nc(-c3ccc([N+](=O)[O-])cc3)c(-c3ccccc3)s2)cc1` returned a z-score of 0.086.

As for `Cc1ccsc1/C=C1\Oc2cc(OCC(=O)c3ccccc3)ccc2C1=O`, the z-score is -0.00804.

In the case of `CCOc1ccc(-c2nc(-c3ccc(OC)c(OC)c3)no2)cc1OCC`, the z-score was active: 4.75.

Compound `Cc1ccc(NS(=O)(=O)c2cc(C(=O)Nc3cccc(N(C)S(C)(=O)=O)c3)ccc2C)c(C)c1` yielded a z-score of -0.372.

For `O=C(CCCCCN1C(=O)C2C3C=CC(C3)C2C1=O)Nc1nccs1` (centres undefined), the z-score was determined as 0.0543.

In turn, `Cc1ccc2[nH]c(=O)c(CN(Cc3ccco3)C(=O)c3cccs3)cc2c1` returned a z-score of -0.0752.

As to `O=C1NC(=Nc2ccc(Cl)cc2)SC1Cc1cc(Cl)ccc1Cl` (centres undefined), the z-score is 0.0493.

`Cc1cc(NC(=O)c2cccc(F)c2)ncc1NC(=O)c1ccco1` registered a z-score of -0.415.

Compound `O=C(NCCCN1CCOCC1)c1ccc(Sc2ccc(Br)cc2)c([N+](=O)[O-])c1` had a z-score of -0.19.

As for `Cc1csc(N/N=C/c2ccc(O)c([N+](=O)[O-])c2)n1`, the z-score was -0.883.

With `CCc1cc(=O)oc2cc(OCC(=O)OC)c(Cl)cc12`, the z-score was -0.459.

On to `Cc1ccc(-c2cc(C(F)F)n3ncc(C(=O)Nc4c(C)nn(Cc5c(Cl)cccc5Cl)c4C)c3n2)cc1`, for which the z-score is -0.725.

Take `CCCn1[nH]cc(SC)c(=O)c1=O`: the z-score is -0.194.

Compound `COC(=O)c1[nH]c2cccc(OC)c2c1NC(=O)CCN1CCC(C(N)=O)CC1` gave a z-score of -0.133.

For `Cc1cc(-c2ccccc2)n2nc(C)c(-c3ccccc3)c2n1`, the z-score is 0.174.

`Cc1c(NC(=O)C2CC(c3ccc(F)cc3)=NO2)c(=O)n(-c2ccccc2)n1C` (centres undefined) displayed a z-score of -0.453.

Take `COc1ccccc1OCC(=O)O`: the z-score is -0.241.
